From the supplement of paper PMC8728848
This is one part of the list.

Tests used:
Test in all cases: glycan array binding signal (z-score within array); higher = stronger binding
Settings in all cases: glycan notation: IUPAC condensed, linker removed
[1] = molecular target: Fuc(a1-3)[Gal(b1-4)]GlcNAc(b1-4)Gal(b1-4)[Fuc(a1-3)]GlcNAc
Method in brief: (§1)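 The Consortium for Functional Glycomics database supplied 3228 glycan arrays, of which those lacking an available protein sequence were dropped. The binding signal, a within-array Z-score, was averaged across arrays of the same protein sequence and across linkers. Negative scores can be read as non-binding.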

[2] = molecular target: Fuc(a1-3)[Gal(b1-4)]GlcNAc(b1-4)Gal(b1-4)[Fuc(a1-3)]GlcNAc(b1-4)Gal(b1-4)[Fuc(a1-3)]GlcNAc
Method in brief: as §1

[3] = molecular target: Fuc(a1-3)[Gal(b1-4)]GlcNAc(b1-6)GalNAc
Method in brief: as §1

[4] = molecular target: Fuc(a1-3)[Gal(b1-4)]GlcNAc(b1-6)[Gal(b1-3)GlcNAc(b1-3)]Gal(b1-4)Glc
Method in brief: as §1

[5] = molecular target: Fuc(a1-3)[Gal(b1-4)]GlcNAc6S
Method in brief: as §1

[6] = molecular target: Fuc(a1-3)[Gal3S(b1-4)]Glc
Method in brief: as §1

[7] = molecular target: Fuc(a1-3)[Gal3S(b1-4)]GlcNAc
Method in brief: as §1

[8] = molecular target: Fuc(a1-3)[Gal3S(b1-4)]GlcNAc6S
Method in brief: as §1

[9] = molecular target: Fuc(a1-3)[GalNAc(b1-4)]GlcNAc
Method in brief: as §1

[10] = molecular target: Fuc(a1-3)[GalNAc(b1-4)]GlcNAc6S
Method in brief: as §1

[11] = molecular target: Fuc(a1-4)GlcNAc
Method in brief: as §1

[12] = molecular target: Fuc(b1-3)GlcNAc
Method in brief: as §1

[13] = molecular target: Gal(a1-2)Gal
Method in brief: as §1

[14] = molecular target: Gal(a1-3)Gal
Method in brief: as §1

[15] = molecular target: Gal(a1-3)Gal(b1-3)GlcNAc
Method in brief: as §1

[16] = molecular target: Gal(a1-3)Gal(b1-3)GlcNAc(b1-2)Man
Method in brief: as §1

[17] = molecular target: Gal(a1-3)Gal(b1-3)GlcNAc(b1-2)Man(a1-3)[Gal(a1-3)Gal(b1-3)GlcNAc(b1-2)Man(a1-6)]Man(b1-4)GlcNAc(b1-4)GlcNAc
Method in brief: as §1

[18] = molecular target: Gal(a1-3)Gal(b1-3)GlcNAc(b1-3)GalNAc
Method in brief: as §1

[19] = molecular target: Gal(a1-3)Gal(b1-3)GlcNAc(b1-6)GalNAc
Method in brief: as §1

[20] = molecular target: Gal(a1-3)Gal(b1-3)[Fuc(a1-4)]GlcNAc(b1-2)Man(a1-3)[Gal(a1-3)Gal(b1-3)[Fuc(a1-4)]GlcNAc(b1-2)Man(a1-6)]Man(b1-4)GlcNAc(b1-4)GlcNAc
Method in brief: as §1

[21] = molecular target: Gal(a1-3)Gal(b1-4)Glc
Method in brief: as §1

[22] = molecular target: Gal(a1-3)Gal(b1-4)GlcNAc
Method in brief: as §1

[23] = molecular target: Gal(a1-3)Gal(b1-4)GlcNAc(b1-2)Man
Method in brief: as §1

[24] = molecular target: Gal(a1-3)Gal(b1-4)GlcNAc(b1-2)Man(a1-3)[Gal(a1-3)Gal(b1-4)GlcNAc(b1-2)Man(a1-6)]Man(b1-4)GlcNAc(b1-4)GlcNAc
Method in brief: as §1

[25] = molecular target: Gal(a1-3)Gal(b1-4)GlcNAc(b1-3)GalNAc
Method in brief: as §1

[26] = molecular target: Gal(a1-3)Gal(b1-4)GlcNAc(b1-6)GalNAc
Method in brief: as §1

[27] = molecular target: Gal(a1-3)Gal(b1-4)[Fuc(a1-3)]GlcNAc
Method in brief: as §1

[28] = molecular target: Gal(a1-3)Gal(b1-4)[Fuc(a1-3)]GlcNAc(b1-2)Man(a1-3)[Gal(a1-3)Gal(b1-4)[Fuc(a1-3)]GlcNAc(b1-2)Man(a1-6)]Man(b1-4)GlcNAc(b1-4)GlcNAc
Method in brief: as §1

[29] = molecular target: Gal(a1-3)GalNAc
Method in brief: as §1

[30] = molecular target: Gal(a1-3)[Gal(a1-4)]Gal(b1-4)GlcNAc
Method in brief: as §1

[31] = molecular target: Gal(a1-4)Gal(b1-3)GlcNAc(b1-2)Man(a1-3)[Gal(a1-4)Gal(b1-3)GlcNAc(b1-2)Man(a1-6)]Man(b1-4)GlcNAc(b1-4)GlcNAc
Method in brief: as §1

[32] = molecular target: Gal(a1-4)Gal(b1-4)Glc
Method in brief: as §1

[33] = molecular target: Gal(a1-4)Gal(b1-4)GlcNAc
Method in brief: as §1

[34] = molecular target: Gal(a1-4)Gal(b1-4)GlcNAc(b1-2)Man(a1-3)[Gal(a1-4)Gal(b1-4)GlcNAc(b1-2)Man(a1-6)]Man(b1-4)GlcNAc(b1-4)GlcNAc
Method in brief: as §1

[35] = molecular target: Gal(a1-4)Gal(b1-4)GlcNAc(b1-3)Gal(b1-4)Glc
Method in brief: as §1

[36] = molecular target: Gal(a1-4)GlcNAc
Method in brief: as §1

[37] = molecular target: Gal(a1-6)Glc
Method in brief: as §1

[38] = molecular target: Gal(b1-2)Gal
Method in brief: as §1

[39] = molecular target: Gal(b1-3)Gal
Method in brief: as §1

[40] = molecular target: Gal(b1-3)Gal(b1-4)GlcNAc
Method in brief: as §1

[41] = molecular target: Gal(b1-3)Gal(b1-4)GlcNAc(b1-2)Man(a1-3)[Gal(b1-3)Gal(b1-4)GlcNAc(b1-2)Man(a1-6)]Man(b1-4)GlcNAc(b1-4)GlcNAc
Method in brief: as §1

[42] = molecular target: Gal(b1-3)GalNAc
Method in brief: as §1

[43] = molecular target: Gal(b1-3)GalNAc(a1-3)[Fuc(a1-2)]Gal(b1-4)Glc
Method in brief: as §1

[44] = molecular target: Gal(b1-3)GalNAc(a1-3)[Fuc(a1-2)]Gal(b1-4)GlcNAc
Method in brief: as §1

[45] = molecular target: Gal(b1-3)GalNAc(b1-3)Gal
Method in brief: as §1

B1: rCNL (Clitocybe nebularis), B2ZRS9 (protein)
chain: SITPGTYNITNVAYTNRLIDLTGSNPAENTLIIGHHLNKTPSGYGNQQWTLVQLPHTTIYTMQAVNPQSYVRVRDDNLVDGAALVGSQQPTPVSIESAGNSGQFRIKIPNLGLALTLPSDANSTPIVLGEVDETSTNQLWAFESVSAV
glycan array binding signal (z-score) [1]: -0.336
glycan array binding signal (z-score) [2]: -0.359
glycan array binding signal (z-score) [3]: -0.213
glycan array binding signal (z-score) [4]: -0.294
glycan array binding signal (z-score) [5]: -0.178
glycan array binding signal (z-score) [6]: -0.218
glycan array binding signal (z-score) [7]: -0.268
glycan array binding signal (z-score) [8]: -0.288
glycan array binding signal (z-score) [9]: -0.279
glycan array binding signal (z-score) [10]: -0.207
glycan array binding signal (z-score) [11]: -0.301
glycan array binding signal (z-score) [12]: -0.297
glycan array binding signal (z-score) [13]: -0.303
glycan array binding signal (z-score) [14]: -0.297
glycan array binding signal (z-score) [15]: -0.184
glycan array binding signal (z-score) [16]: -0.224
glycan array binding signal (z-score) [17]: -0.252
glycan array binding signal (z-score) [18]: -0.217
glycan array binding signal (z-score) [19]: -0.212
glycan array binding signal (z-score) [20]: -0.27
glycan array binding signal (z-score) [21]: -0.199
glycan array binding signal (z-score) [22]: -0.098
glycan array binding signal (z-score) [23]: -0.216
glycan array binding signal (z-score) [24]: -0.218
glycan array binding signal (z-score) [25]: -0.129
glycan array binding signal (z-score) [26]: -0.175
glycan array binding signal (z-score) [27]: -0.3
glycan array binding signal (z-score) [28]: -0.266
glycan array binding signal (z-score) [29]: -0.295
glycan array binding signal (z-score) [30]: -0.292
glycan array binding signal (z-score) [31]: -0.187
glycan array binding signal (z-score) [32]: -0.261
glycan array binding signal (z-score) [33]: -0.276
glycan array binding signal (z-score) [34]: -0.182
glycan array binding signal (z-score) [35]: -0.089
glycan array binding signal (z-score) [36]: -0.286
glycan array binding signal (z-score) [37]: -0.302
glycan array binding signal (z-score) [38]: -0.296
glycan array binding signal (z-score) [39]: -0.303
glycan array binding signal (z-score) [40]: 0.348
glycan array binding signal (z-score) [41]: 0.083
glycan array binding signal (z-score) [42]: -0.273
glycan array binding signal (z-score) [43]: 0.203
glycan array binding signal (z-score) [44]: 0.555
glycan array binding signal (z-score) [45]: -0.224
